Experimental data reported in PubChem BioAssay (NCI).
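Briefly, cells in 96-well plates were exposed to five compound concentrations for 48 h, and endpoints were estimated by linear interpolation. Here, GI50 denotes the concentration required for 50% inhibition of growth.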 For part of its entries the source gives two or more results. This list holds those alone. An entry can have further records. A record mostly stands for its own series of concentrations, which the source does not state; some values may only mark the edge of a range.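 The concentration for full growth arrest is given as TGI.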

Columns and labels:
Test in all cases: inhibition of tumour cell growth, NCI panel, 48 h
[1] = system: CCRF-CEM leukemia
[2] = system: HCC-2998 colon
[3] = system: HCT-116 colon
[4] = system: HCT-15 colon
[5] = system: HL-60(TB) leukemia
[6] = system: K-562 leukemia
[7] = system: NCI/ADR-RES ovarian
[8] = system: RXF 393 renal
[9] = system: SR leukemia
[10] = system: DMS 114 small cell lung
[11] = system: DMS 273 small cell lung
[12] = system: HOP-62 NSCLC
[13] = system: RPMI-8226 leukemia
[14] = system: SF-295 CNS
[15] = system: SF-539 CNS
[16] = system: XF 498 CNS

Row | Structure (SMILES) | TGI [1] | TGI [2] | TGI [3] | TGI [4] | TGI [5] | TGI [6] | TGI [7] | TGI [8] | TGI [9] | GI50 [10] | TGI [11] | TGI [12] | TGI [13] | TGI [14] | TGI [15] | TGI [16]
1 | CC1=NN(C(=O)c2ccccc2O)C(=O)/C1=C/c1ccc([N+](=O)[O-])cc1 | 1.37 µM and > 100 µM | 7.26 µM and > 100 µM | 2.3 µM and > 100 µM | 3.54 µM and > 100 µM | 3.29 µM and > 36 µM | 762 nM and > 100 µM | 7.78 µM and > 100 µM | 2.9 µM and 81.8 nM | 4.23 µM and > 100 µM |  |  |  |  |  |  | 
2 | CC1[C@@H]2[C@@H](C=C3C4CCC5Cc6nc7c(nc6C[C@@]5(C)C4C[C@H](O)[C@]32CO)CC2CCC3C4=C[C@H]5O[C@@]6(O[C@@](C)(CO)C[C@@H]6O)C(C)[C@@]5(O)[C@]4(C)[C@@H](O)CC3[C@]2(C)C7)O[C@]12CCC(C)(C)O2 (some centres undefined) | 140 nM and > 3.65 µM |  |  |  |  | 353 nM and > 3.65 µM |  | 19.9 nM and 0.507 nM |  | < 0.365 nM [1 test] and 4.66 nM [mean of 2 tests] | 11.1 nM and 0.744 nM | 34.9 nM and 2.43 nM | 11.6 nM and > 3.65 µM | 5.81 nM and 0.39 nM | 12.4 nM and 175 nM | 727 nM and < 0.365 nM
